{"source": "PubChem BioAssay AID2147", "about": "(National Center for Advancing Translational Sciences (NCATS), 2009)", "note": "The campaign covered roughly 230,000 compounds. About 3,600 (1.6%) were called active. Inconclusive results, whose numbers are uncertain, are shown with a selection of clear calls. Calls follow the shape of the dose curve; as a rule, active = well fitted inhibition curve with a large enough effect (not every such curve was filed as active); inconclusive = small, poorly fitted or top-dose-only effect, or another doubt; inactive = no such curve, though single readings can be large or run the other way. Where the call is inconclusive, the potency comes from a doubtful curve fit. Also: nearly all actives have a fitted effect of over 50% in size.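 For activity change, negative = inhibition in this document: 0% = wells with enzyme and -100% = buffer wells without enzyme.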 Potency is read from the fitted curve at half-maximal effect; tags tell the direction and shape of the fitted curve.", "data": [{"biological_target": "Lysine-specific demethylase 4E (Homo sapiens) (UniProt B2RXH2)", "sequence (B2RXH2 whole entry, looked up, the tested form may be a part)": "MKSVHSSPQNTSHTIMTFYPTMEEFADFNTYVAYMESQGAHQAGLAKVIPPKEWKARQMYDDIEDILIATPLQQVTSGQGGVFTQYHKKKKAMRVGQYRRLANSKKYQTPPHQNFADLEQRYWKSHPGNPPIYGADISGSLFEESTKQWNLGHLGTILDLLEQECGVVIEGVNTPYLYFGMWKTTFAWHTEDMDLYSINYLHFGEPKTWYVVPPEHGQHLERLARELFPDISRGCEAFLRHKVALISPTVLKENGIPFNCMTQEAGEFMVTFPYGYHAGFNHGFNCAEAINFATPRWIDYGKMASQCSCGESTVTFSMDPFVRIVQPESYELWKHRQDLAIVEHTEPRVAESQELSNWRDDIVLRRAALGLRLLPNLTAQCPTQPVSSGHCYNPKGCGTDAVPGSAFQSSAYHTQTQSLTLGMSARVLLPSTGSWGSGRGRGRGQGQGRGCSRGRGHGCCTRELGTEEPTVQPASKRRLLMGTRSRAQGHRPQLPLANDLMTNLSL", "experiment": "qHTS Assay for Inhibitors of Human Jumonji Domain Containing 2E (JMJD2E)", "conditions": "JMJD2E catalytic domain, FDH-coupled NADH fluorescence (FDH is formaldehyde dehydrogenase); series mostly up to 57.1 µM; activity change, negative = inhibition: at the top concentration", "values": [{"smiles": "CCOc1cc(C(=O)OCC(=O)Nc2ncc(Cl)c(C)c2Cl)ccc1OCC(=O)N1CCOCC1", "Potency": "inconclusive: 39.8 µM [inhibitor, single point]"}, {"smiles": "O=S(=O)(c1ccc(F)cc1)N1CCC(N2CCCC2)CC1", "Potency": "inconclusive: 31.6 µM [inhibitor, single point]"}, {"smiles": "CCn1c(=O)cc(O)c2ccccc21", "Potency": "inconclusive: 39.8 µM [inhibitor, single point]"}, {"smiles": "COc1cc(/C=N/NC(=O)c2ccc(N(C)S(=O)(=O)c3ccccc3)cc2)cc(OC)c1OC", "Potency": "inconclusive: 35.5 µM [inhibitor, single point]"}, {"smiles": "COc1ccc(C(Nc2ccccn2)c2c(NC(=O)c3ccco3)sc(C)c2C)cc1", "note": "(stereo not given)", "Potency": "inconclusive: 35.5 µM [inhibitor, single point]"}, {"smiles": "Cn1c(-c2ccc3nc(N)sc3c2)nc2cc(N)ccc21", "Potency": "inconclusive: 17.8 µM [inhibitor, partial curve]"}, {"smiles": "CC(=O)C1=C(O)C(=O)N(c2ccc(Br)cn2)C1c1ccc(Br)cc1", "note": "(stereo not given)", "Potency": "inconclusive: 39.8 µM [inhibitor, single point]"}, {"smiles": "O=C(NC(=O)c1ccc(F)cc1)Nc1nc(-c2cccs2)cc(C(F)(F)F)n1", "Potency": "inconclusive: 31.6 µM [inhibitor, partial curve]"}, {"smiles": "O=C1CC(c2ccc(F)cc2)Cc2nc(N3CCOCC3)ncc21", "note": "(stereo not given)", "activity change, negative = inhibition": "inactive: -14.7%"}, {"smiles": "COc1ccc(OC)c(C(=O)C2COC(=O)C2)c1", "note": "(stereo not given)", "Potency": "inconclusive: 17.8 µM [inhibitor, partial curve]"}, {"smiles": "COc1cccc2cc(/C(C)=N/Nc3nc(-c4cc(C)ccc4C)cs3)c(=O)oc12", "activity change, negative = inhibition": "inactive: -0.147%"}, {"smiles": "Cc1ccc2nc(-c3ccc(NC(=O)C4CCCO4)cc3)[nH]c2c1", "note": "(stereo not given)", "Potency": "inconclusive: 22.4 µM [inhibitor, partial curve]"}, {"smiles": "CCC(CC)C(=O)Nc1cc(C(=O)OC)ccc1C(=O)OC", "Potency": "inconclusive: 25.1 µM [inhibitor, partial curve]"}, {"smiles": "O=C(c1ccc(Cn2c(=S)[nH]c3ccc(N4CCOCC4)cc3c2=O)cc1)N1CCN(c2ccc(F)cc2)CC1", "Potency": "inconclusive: 25.1 µM [inhibitor, partial curve]"}, {"smiles": "Fc1cnc(N2CCOCC2)nc1NCc1ccccc1", "Potency": "inconclusive: 25.1 µM [inhibitor, partial curve]"}, {"smiles": "COc1cccc(-n2c(SCC(=O)NCCC3=CCCCC3)nc3n[nH]c(C)c3c2=N)c1", "Potency": "inconclusive: 39.8 µM [inhibitor, single point]"}, {"smiles": "CCCn1[nH]cc(SC)c(=O)c1=O", "activity change, negative = inhibition": "inactive: -27.7%"}, {"smiles": "COC(=O)c1[nH]c2cccc(OC)c2c1NC(=O)CCN1CCC(C(N)=O)CC1", "Potency": "inconclusive: 31.6 µM [inhibitor, partial curve]"}, {"smiles": "O=c1c2c3c(sc2n(CCN2CCCC2)c(=O)n1Cc1ccco1)CCCCC3", "activity change, negative = inhibition": "inactive: -4.12%"}, {"smiles": "O=C(NNc1c2ccccc2nc2ccccc12)c1ccc(O)cc1O", "Potency": "inconclusive: 39.8 µM [inhibitor, single point]"}, {"smiles": "COc1cc2cc(C)c(SCC(=O)N3CCN(C(=O)c4ccco4)CC3)nc2cc1OC", "activity change, negative = inhibition": "inactive: -7.91%"}, {"smiles": "COc1ccc(C(=O)CCNc2ccc(C)c(Cl)c2)cc1", "activity change, negative = inhibition": "inactive: -5.13%"}, {"smiles": "CN(C)c1ccc(/C=N/NC(=O)c2cc(-c3ccc4c(c3)OCO4)n[nH]2)cc1", "Potency": "inconclusive: 31.6 µM [inhibitor, partial curve]"}, {"smiles": "CCOC(=O)COc1ccc(/C=C2/SC(=Nc3ccccc3)N(Cc3cccnc3)C2=O)cc1OC", "activity change, negative = inhibition": "inactive: 2.13%"}, {"smiles": "COc1ccc(CNC(=O)/C=C/c2cc3c(cc2Br)OCO3)cc1", "Potency": "inconclusive: 6.31 µM [inhibitor, full curve]"}, {"smiles": "Cn1c(=O)c(=O)n(C)c2cc(S(=O)(=O)N3CCCC3C(=O)NCc3ccco3)ccc21", "note": "(stereo not given)", "Potency": "inconclusive: 20 µM [inhibitor, single point]"}, {"smiles": "O=C(Nc1nnc(C2=COCCO2)o1)c1ccc(S(=O)(=O)N2CCCCC2)cc1", "Potency": "inconclusive: 39.8 µM [inhibitor, single point]"}, {"smiles": "O=C(c1cccc(Cl)c1)N1CCN(Cc2c[nH]c3ccccc23)CC1", "activity change, negative = inhibition": "inactive: 7.46%"}, {"smiles": "Oc1ccc(CNc2ccccc2O)cc1", "Potency": "active: 15.8 µM"}, {"smiles": "CCOC(=O)c1oc2ccccc2c1NC(=O)c1cccc(OC)c1", "Potency": "inconclusive: 35.5 µM [inhibitor, single point]"}, {"smiles": "CSc1nc(-c2ccccc2)ccc1C(N)=O", "Potency": "inconclusive: 35.5 µM [inhibitor, single point]"}, {"smiles": "Cc1ccc(C(=O)OCn2ncc(Cl)c(Cl)c2=O)cc1", "activity change, negative = inhibition": "inactive: 5.4%"}, {"smiles": "CCc1ccc(/C=C2\\Oc3cc(OS(C)(=O)=O)ccc3C2=O)cc1", "Potency": "inconclusive: 39.8 µM [inhibitor, single point]"}, {"smiles": "CN(C)S(=O)(=O)c1ccc(N2CCCC2)c(C(=O)Nc2nc3ccc(F)cc3s2)c1", "Potency": "inconclusive: 35.5 µM [inhibitor, single point]"}, {"smiles": "CCOc1ccc(OCc2ccc(C(=O)N3CCOCC3)cc2)cc1", "activity change, negative = inhibition": "inactive: -1.08%"}, {"smiles": "Cc1ccc(/C=C(/C#N)C(=O)NC(C)c2ccccc2)o1", "note": "(stereo not given)", "Potency": "inconclusive: 39.8 µM [inhibitor, single point]"}, {"smiles": "Cc1cc(C)n(-c2ncc3c(n2)N(CCO)CCOC3=O)n1", "Potency": "inconclusive: 17.8 µM [inhibitor, partial curve]"}, {"smiles": "Cc1cc(C)nc(NC(=S)Nc2cccc(Cl)c2Cl)c1", "Potency": "inconclusive: 28.2 µM [inhibitor, single point]"}, {"smiles": "CC(C)N1CCC2(CC1)N=C(c1ccc3c(c1)OCO3)CC(c1cc(Cl)ccc1O)N2", "note": "(stereo not given)", "Potency": "inconclusive: 39.8 µM [inhibitor, single point]"}, {"smiles": "Cc1ccsc1/C=C1\\Oc2cc(OCC(=O)c3ccccc3)ccc2C1=O", "Potency": "inconclusive: 35.5 µM [inhibitor, single point]"}, {"smiles": "Cc1ccc2[nH]c(=O)c(CN(CC3COCCO3)C(=O)Nc3ccccc3F)cc2c1", "note": "(stereo not given)", "Potency": "inconclusive: 22.4 µM [inhibitor, single point]"}, {"smiles": "CCCCCCn1c(-c2cccs2)n[nH]c1=S", "Potency": "inconclusive: 28.2 µM [inhibitor, partial curve]"}, {"smiles": "Cc1ccc(NS(=O)(=O)c2cc(C(=O)Nc3cccc(N(C)S(C)(=O)=O)c3)ccc2C)c(C)c1", "activity change, negative = inhibition": "inactive: 1.86%"}, {"smiles": "Cc1ccc2[nH]c(=O)c(CN(Cc3ccco3)C(=O)c3cccs3)cc2c1", "Potency": "inconclusive: 22.4 µM [inhibitor, single point]"}, {"smiles": "CN(C)S(=O)(=O)c1ccc(NC(=O)Cc2ccc(S(=O)(=O)N3CCOCC3)s2)cc1", "activity change, negative = inhibition": "inactive: -2.73%"}, {"smiles": "CN1C(C(=O)NCc2ccccc2)CC2Cn3c(nc4cc5ccccc5cc43)C21", "note": "(stereo not given)", "Potency": "inconclusive: 28.2 µM [inhibitor, single point]"}, {"smiles": "Oc1cc2c(c(Cl)c1O)CCNCC2c1ccccc1", "note": "(stereo not given)", "Potency": "active: 12.6 µM"}, {"smiles": "CCc1cc(=O)oc2cc(OCC(=O)OC)c(Cl)cc12", "Potency": "inconclusive: 35.5 µM [inhibitor, partial curve]"}, {"smiles": "CCOc1ccc(/C=N/Nc2cc(C)nc(N3CCOCC3)n2)cc1", "activity change, negative = inhibition": "inactive: -0.6%"}, {"smiles": "CCOC(=O)c1ccc(NC(=O)c2ccccc2C)cc1", "activity change, negative = inhibition": "inactive: -7.29%"}, {"smiles": "Cc1cc(C(=O)NNS(=O)(=O)c2cccc(Cl)c2)nn1C(C)(C)C", "activity change, negative = inhibition": "inactive: 2.6%"}, {"smiles": "COc1cc(/C=C(\\C#N)c2ccccn2)ccc1OCC(=O)Nc1c(Cl)cccc1Cl", "Potency": "inconclusive: 35.5 µM [inhibitor, single point]"}, {"smiles": "Cc1nnc(N2CCN(c3ccccc3)CC2)[nH]c1=O", "activity change, negative = inhibition": "inactive: -0.283%"}, {"smiles": "CCn1c(COc2ccccc2)nnc1SCc1ccc(C#N)cc1", "activity change, negative = inhibition": "inactive: -3.33%"}, {"smiles": "CC1=NOC(=O)/C1=C/c1ccc2c(c1)OCO2", "Potency": "inconclusive: 28.2 µM [inhibitor, single point]"}, {"smiles": "COc1cccc(CNC(=O)c2ccccc2N)c1", "Potency": "inconclusive: 28.2 µM [inhibitor, partial curve]"}, {"smiles": "COc1ccccc1NC(=O)c1ccc(NC(=O)c2cc3c(s2)CCC3)cc1", "Potency": "inconclusive: 35.5 µM [inhibitor, single point]"}, {"smiles": "CCOC(=O)c1c(NC(=S)Nc2ccc(Cl)cc2)sc2c1CCN(C)C2", "Potency": "inconclusive: 28.2 µM [inhibitor, partial curve]"}, {"smiles": "O=S(=O)(c1cccc(-c2nc3ccccc3s2)c1)N1CCCC1", "Potency": "inconclusive: 39.8 µM [inhibitor, single point]"}, {"smiles": "CCOc1cc2c(C#N)c(N3CCNCC3)nc(N)c2c(N)n1", "Potency": "inconclusive: 22.4 µM [inhibitor, partial curve]"}, {"smiles": "C=CCS(=O)(=O)c1cccc2cccnc12", "Potency": "inconclusive: 35.5 µM [inhibitor, single point]"}, {"smiles": "Cc1ccc2nc(-c3ccccc3)c(-c3ccccc3)nc2c1", "Potency": "inconclusive: 31.6 µM [inhibitor, partial curve]"}, {"smiles": "CC(C)NC(=O)C12CC3CC(C1)CC(C(=O)NC(C)C)(C3)C2", "activity change, negative = inhibition": "inactive: 10.7%"}, {"smiles": "Cc1[nH]n(-c2ccccc2)c(=O)c1/C=N/N(C)c1ccccc1", "Potency": "inconclusive: 28.2 µM [inhibitor, single point]"}, {"smiles": "COc1cccc2cc(-c3n[nH]c(=S)n3C)oc12", "Potency": "inconclusive: 31.6 µM [inhibitor, partial curve]"}, {"smiles": "O=C1OCc2cccc3cccc1c23", "Potency": "inconclusive: 31.6 µM [inhibitor, partial curve]"}, {"smiles": "O=C(COc1ccc2ccc(=O)oc2c1)OCc1ccccc1", "Potency": "inconclusive: 35.5 µM [inhibitor, partial curve]"}, {"smiles": "Cc1ccc(C)c(N(CC(=O)Nc2ccccc2C(=O)NCc2ccco2)S(=O)(=O)c2ccccc2)c1", "Potency": "active: 3.98 µM"}, {"smiles": "O=C(NCC1CCCO1)C(c1cccs1)N(C(=O)c1ccc(CN2CCOCC2)o1)c1ccc(Cl)cc1", "note": "(stereo not given)", "Potency": "inconclusive: 39.8 µM [inhibitor, single point]"}, {"smiles": "Cc1ccc(NC(=O)c2cc(NC(=O)c3ccco3)ccc2N2CCOCC2)cc1Cl", "Potency": "inconclusive: 39.8 µM [inhibitor, single point]"}]}]}
